Results on 42 molecules are retold here after ChEMBL document CHEMBL4888484, “Replenishing the malaria drug discovery pipeline: Screening and hit evaluation of the MMV Hit Generation Library 1 (HGL1) against asexual blood stage Plasmodium falciparum ,using a nano luciferase reporter read-out” (2022).

About 540 (0.36%) of roughly 150,000 compounds showed an effect of 50% or more. The list shows a part of the results.

The experiment concerns Plasmodium falciparum. Description: Primary screen in NF54 nanoGlo assay, in single point, at 2uM, 72h; a lower Z score goes with more inhibition. Format: functional, Erythrocyte. The conditions noted are these: timepoint 72 hour.
Regarding `CCc1ccc([C@H](COC)NS(=O)(=O)CCCN(C)C)o1`, the “% Inhibition” value is 0% and the Z score was -0.02.
Take `CCC[C@@H]1NC(C)(C)N(CCOC)C1=O`: the “% Inhibition” value is -10% and the Z score came to 1.16.
For `COCc1nc(CNC(=O)COc2ccccc2Cl)no1` the same measures were -10% and 1.62.
The like results for `NS(=O)(=O)N1CC(O)CC1C1CCCCC1` (centres undefined) were, in that order, -6% and 0.83.
For `COC(=O)c1ccc2c(c1)NCC1(CC1)O2` the same measures were -5% and 0.96.
As to `O=C(N[C@H]1CCCCNC1=O)C1CCCCC1`, the “% Inhibition” value is -6% and the Z score is on record as 0.77.
On to `CCCCCNC(=O)NCc1ncoc1C`, for which the “% Inhibition” value is 31% and the Z score is reported as -0.39.
For `Clc1ccc(CN2CCO[C@@H](Cn3cccn3)C2)s1` the same measures were -9% and 0.84.
Regarding `CN(C[C@@H]1CC=CCC1)S(=O)(=O)CC1CN(S(C)(=O)=O)C1`, the “% Inhibition” value is listed as -2% and the Z score is reported as 0.25.
The like results for `COc1cc(C(=O)Nc2ccc3nn(-c4cccc5ccccc45)nc3c2)cc(OC)c1OC` were, in that order, 9% and -1.44.
The like results for `COc1ccccc1N1CCN(c2nc(Nc3ccc(C)c(C)c3)c3nccnc3n2)CC1` were, in that order, -10% and 1.56.
The like results for `C[C@H]1CN(C(=O)c2cc(C#N)cn2C)CCS1(=O)=O` were, in that order, -10% and 0.84.
For the molecule `COc1cccc(CN(Cc2scnc2C)C2CCC(O)CC2)c1` (centres undefined), the “% Inhibition” value is listed as -3% and the Z score turned out to be 0.23.
The like results for `Cc1oc(-c2cccc(F)c2)nc1CN1CC[C@]2(CCCO2)CCC1=O` were, in that order, -12% and 2.15.
`CN1CCC2(CC1)CCN(S(=O)(=O)c1c(F)cccc1F)C2`: the “% Inhibition” value is on record as -8% and the Z score came out at 1.5.
For `O=C(Cc1cccnc1)N[C@H]1CCN(c2ccc(Cl)c(F)c2)C1` the same measures were -6% and 0.71.
In the case of `O=C(c1cccnc1)N1C[C@@H]2C[C@@H](O)CN2C2(CN(Cc3ccc4c(c3)OCO4)C2)C1`, the “% Inhibition” value was 1% and the Z score is listed as -0.13.
For the molecule `CC1CCCCC1NC(=O)c1ccc(-n2cccn2)nn1` (centres undefined), the “% Inhibition” value is listed as -9% and the Z score is 1.75.
Regarding `CCCn1cc(NC(C)C2CCCN(C(=O)OC(C)(C)C)C2)cn1` (centres undefined), the “% Inhibition” value is reported as -6% and the Z score came out at 0.87.
Turning to `Cc1cccc(N2CCN(C(=O)c3nc4cccnc4n(C)c3=O)CC2)c1C`, the “% Inhibition” value is 3% and the Z score was -0.38.
For `COCC(=O)Nc1cnn(-c2cccc(C(=O)N3CCN(c4cccc(OC)c4)C(=O)C3)c2)c1`, the “% Inhibition” value was -11% and the Z score was 2.14.
The like results for `Cc1n[nH]c(C)c1NC(=O)Nc1ccnn1Cc1cccs1` were, in that order, -10% and 1.09.
For `Cc1cccc(CN(Cc2ccccc2)C(=O)c2nnc(C)o2)n1` the same measures were 4% and -0.55.
As for `COC(=O)C[C@H](c1c(Cc2ccc(OC)cc2)[nH][nH]c1=O)c1ccnn1C(C)C`, the “% Inhibition” value is on record as -12% and the Z score is given as 1.58.
For `O[C@H](COc1ccc(F)cc1)Cn1nnc(-c2ccco2)n1`, the “% Inhibition” value is given as -9% and the Z score amounted to 1.55.
For `CN(CCc1ccccc1)[C@@H]1[C@H](O)[C@H](CO)O[C@@H]1CNC1CCCCC1` the same measures were 9% and -1.1.
The like results for `O=C(C1CCCC1)N1CCN(C[C@H](O)c2ccco2)CC1` were, in that order, -5% and 0.77.
Take `Cc1nocc1Cc1noc(Nc2ccccc2)n1`: the “% Inhibition” value was -15% and the Z score is on record as 2.59.
For `CC1(C)CN(S(=O)(=O)CC2CCCCC2(F)F)C1c1cccnc1` (centres undefined) the same measures were 14% and -1.77.
The like results for `Cc1ccc(S(=O)(=O)c2ccc(C(=O)NC(C)C)s2)cc1` were, in that order, 0% and 0.02.
The like results for `O=C(Nc1ccccc1N1CCCN(Cc2ccc(OC(F)(F)F)cc2)C1=O)OCc1ccccc1` were, in that order, 9% and -1.85.
In the case of `O=C(c1cnn2c(-c3ccc(Cl)c(Cl)c3)ccnc12)N1CCc2ccccc2C1`, the “% Inhibition” value was -17% and the Z score was 3.01.
The like results for `CCCCS(=O)(=O)N[C@@H](C)Cn1cncn1` were, in that order, 2% and -0.18.
For `COc1ccc(CNC(=O)Cn2c(=O)n(C)c(=O)c3c2c(-c2ccccc2)cn3C)cc1OC` the same measures were -10% and 1.58.
The like results for `O=C(NCCCc1nc(=O)[nH][nH]1)C1CCCCCC1` were, in that order, 10% and -1.02.
Consider `COc1ccc(N[C@@]2(c3ccccc3)c3ccccc3C(=O)N2c2ccc(OC)cc2)cc1`, for which the “% Inhibition” value turned out to be 3% and the Z score is listed as -0.38.
For `CCN(CC)C(=O)c1nc(CNC(=O)c2cccn2C)oc1C` the same measures were -17% and 2.25.
Take `COc1ccc2c(c1)CN(C(=O)C(C)N)C(c1ccccc1)C2` (centres undefined): the “% Inhibition” value was 15% and the Z score was -1.67.
For `Cc1cc(C)nc(N2CCN(C(=O)Nc3cccc(-c4cnc[nH]4)c3)CC2)n1`, the “% Inhibition” value is on record as -8% and the Z score stood at 1.52.
Consider `O=C(Nc1nc2c(s1)CN(Cc1ccccc1)CC2)[C@H]1CCS(=O)(=O)C1`, for which the “% Inhibition” value amounted to 12% and the Z score is -2.18.
`CN(Cc1cscn1)C(=O)C1CC12CCCc1ccccc12` (centres undefined): the “% Inhibition” value is recorded as -13% and the Z score was 2.47.
The like results for `Cc1ccc(S(=O)(=O)Nc2ccc(C)n(CC(=O)N3CCCN(C)CC3)c2=O)cc1` were, in that order, -13% and 1.72.

As a reminder, the % Inhibition is the relative decrease from the control value, in per cent.
